Test results taken from patent publication US20160340422A1 (published 2016).

How the values were obtained:
[1] = biological target: T1, Mouse IL-17A (mouse, UniProt Q62386 26-158); assay: ELISA
T1 chain: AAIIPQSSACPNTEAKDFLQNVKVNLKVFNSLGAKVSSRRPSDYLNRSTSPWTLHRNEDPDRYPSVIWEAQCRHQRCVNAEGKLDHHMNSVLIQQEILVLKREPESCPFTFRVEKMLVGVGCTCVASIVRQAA

[2] = biological target: Human IL-17A (human, UniProt Q16552 24-155); assay: ELISA
UniProt Q16552, sequence (Q16552 24-155): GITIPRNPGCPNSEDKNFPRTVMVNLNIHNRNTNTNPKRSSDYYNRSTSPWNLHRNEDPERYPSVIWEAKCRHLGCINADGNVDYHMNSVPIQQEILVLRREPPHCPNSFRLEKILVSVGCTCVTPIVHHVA

B1: Bifunctional fusion protein C (other)
heavy: QVQLKESGPGLVQPSQTLSLTCTVSGFSLTNYYVHWVRQPPGKGLEWMGGVWNDGDTSYNSVLRSRLSITRDTSKSQVLLKMSSLQTEDTATYYCAREGREGFVGYYVMDAWGPGASVTVSSAKTTAPSVYPLAPVCGDTTGSSVTLGCLVKGYFPEPVTLTWNSGSLSSGVHTFPAVLQSDLYTLSSSVTVTSSTWPSQSITCNVAHPASSTKVDKKIEPRGPTIKPCPPCKCPAPNLLGGPSVFIFPPKIKDVLMISLSPIVTCVVVDVSEDDPDVQISWFVNNVEVHTAQTQTHREDYNSTLRVVSALPIQHQDWMSGKEFKCKVNNKDLPAPIERTISKPKGSVRAPQVYVLPPPEEEMTKKQVTLTCMVTDFMPEDIYVEWTNNGKTELNYKNTEPVLDSDGSYFMYSKLRVEKKNWVERNSYSCSVVHEGLHNHHTTKSFSRTPGK
light: [about 120 residues skipped]GGGSGGGGSGGGGSGGGGSGGGGSDIQMTQSPSFLSASVGERVTLSCKASQNINKYLDWFQQKLGEAPKLLIYNADNLHTGIPSRFSGSGSFSDFILTISSLQPEDDATYFCLQRESWPYTFGAGTKLELKRADAAPTVSIFPPSSEQLTSGGASVVCFLNNFYPKDINVKWKIDGSERQNGVLNSWTDQDSKDSTYSMSSTLTLTKDEYERHNSYTCEATHKTSTSPIVKSFNRNEC
EC50 [1]: 0.124 nM
EC50 [2]: 0.11 nM

B2: Bifunctional fusion protein A (other)
heavy: [about 120 residues skipped]GGGSGGGGSGGGGSGGGGSGGGGSQVQLKESGPGLVQPSQTLSLTCTVSGFSLTNYYVHWVRQPPGKGLEWMGGVWNDGDTSYNSVLRSRLSITRDTSKSQVLLKMSSLQTEDTATYYCAREGREGFVGYYVMDAWGPGASVTVSSAKTTAPSVYPLAPVCGDTTGSSVTLGCLVKGYFPEPVTLTWNSGSLSSGVHTFPAVLQSDLYTLSSSVTVTSSTWPSQSITCNVAHPASSTKVDKKIEPRGPTIKPCPPCKCPAPNLLGGPSVFIFPPKIKDVLMISLSPIVTCVVVDVSEDDPDVQISWFVNNVEVHTAQTQTHREDYNSTLRVVSALPIQHQDWMSGKEFKCKVNNKDLPAPIERTISKPKGSVRAPQVYVLPPPEEEMTKKQVTLTCMVTDFMPEDIYVEWTNNGKTELNYKNTEPVLDSDGSYFMYSKLRVEKKNWVERNSYSCSVVHEGLHNHHTTKSFSRTPGK
light: DIQMTQSPSFLSASVGERVTLSCKASQNINKYLDWFQQKLGEAPKLLIYNADNLHTGIPSRFSGSGSFSDFILTISSLQPEDDATYFCLQRESWPYTFGAGTKLELKRADAAPTVSIFPPSSEQLTSGGASVVCFLNNFYPKDINVKWKIDGSERQNGVLNSWTDQDSKDSTYSMSSTLTLTKDEYERHNSYTCEATHKTSTSPIVKSFNRNEC
EC50 [1]: 0.108 nM
EC50 [2]: 0.116 nM
